In the supplement of paper PMC12632987:
Whole data set: some 2,300 sequences, median “median log2 fold change of GCK-ALFA target abundance (FLAG IP / Myc IP barcode read proportion)” near 0.095, cut for the lowest 2% near -0.47. This is one part of the list.

B1: LC3A_free_46_2424 (protein)
chain: VVVEIDIDLLHEDEEVLKKAVEEIVKAIKEIAEKHGAEVKIEVEFSKDEDGYYFARIKATITAEDLETAQEIADEITDAIDEIAEKYDVSYIISVEIIEE
B2: LC3A_28_1197 (protein)
chain: SEADKVIKEIEKQAEKALKEGDGAVIVVKISKTLSKEGVEKILETIKKEAEKLKDLERVSIIIEVESGVSQEDINLIADTGEEIEEKYPNVTVIIALDEE
B3: LC3A_free_26_2152 (protein)
chain: DIFIDLVELDKAIELLEKALKLLEEDKNASEELKKLVKEALKKAEEMTLESLEEAKKLVEEALKLLEKDKSLSEEKKKELKKLLEEALKLLEKNIEIAKS
B4: LC3A_28_1321 (protein)
chain: SHVEEELAKAKAEAEEQAAQGEDITITVKVSGSTTLEEALALMEGLREIVEKYAPTRKVHIIVDLDGGVKQEVIDAIAEKAEEIEKEFPNATVILALDEE
B5: LC3A_45_1977 (protein)
chain: MAEATLDVLVPRELAEAALEALKRGAERLLEERGPGVEVDLEALEESYRATRDEEEVLLTVRIRAPTRQEALDLADELVEELERELGRPVAAAISVEELP
B6: LC3A_3_1830 (protein)
chain: MEEELEETLKLLKEAGHSEETLEALKETVKKLLEKGYEEAAKTLLELVREAIHLPSELLLEALEEVLKYVEENDDSEEETTEKIKEIFNLYRNEYEIEEL
B7: LC3A_132_250 (protein)
chain: SEELLEKALKELKEKLEKVVDALKAGEDWLPLIKELDELAEEYAEKLSLEDTEELVEESEKYAEKLFAERLDPNDVEARRALDIIEMLLDGVLIEKELKS
B8: LC3A_free_46_2382 (protein)
chain: YKANIDIDFGAMDKETAEKMAEEIKKAAKEIAKKTGVEIKVDIEIITDEEGETYLNVNITIEGEDKEKVKKAVNELLDKIDEIAEKANVSYIISVDFEDT
B9: LC3A_28_932 (protein)
chain: MTVEEIIARIRATADAAIAAGEDALIEVEIGPDTTVEEARRIMEELEEEVARLSAAGLKVDVVIDLDDVSQEVLDTVMDRAEEIEAAYPQANVIIALDEE
B10: LC3A_3_1651 (protein)
chain: MEEKIEKLLKRLKEKGKSEEVLEAVRKALEALKEKGYEEALEKFIELLEELEDLSDELLLELAEEVLELVETSDLSEEELTKEIEEIAKTIRNEGEIIEL
B11: LC3A_3_1471 (protein)
chain: EDPLIAEAEAALKAAGVPPEAVAEIVAALRRLAEHGVLEAAVEELKEALKSPNATPEKLVRLARELAERVEREGLTPEEAREEARVLRLEYIEIEEIDEE
B12: LC3A_147_432 (protein)
chain: YITEVDIDVLTKDAEEEVLEAAREIVEELRAKGYKVELEVEVEELENGEKFIDIRIIVEAETEEEAKEAADYIVDRFDELYEKNKDKILGYIISVEIKEK
B13: LC3A_102_143 (protein)
chain: DLEEKKKKLKEEALKKVKEALEKDKSVTEEEKKKLLELAEKAIEATIENTVSEAQHGFSDIVAEDKRLEALEEIEKLNPKIAKLVKELIKKVEEELKKFM
B14: LC3A_28_1301 (protein)
chain: SALAEALEKVIAEAKKAAAAGEAKVFTIKVPGDANQEDIDKVIEAMKEIAEILKDVKGSAIIIDVDANLKQEHLDKLAKAAEEIEKKYPNVTVIIALEEP
B15: LC3A_132_324 (protein)
chain: SEEKVKKLREELNKLIEEAEKNIDDEKKVEELIKKIKELLEKASKEISPEEAAELFNEVADKLDEVAEKADEAGKENVALTLDGLRVEAEALAIREEEKI
B16: LC3A_147_469 (protein)
chain: YKTTVSIDILTKDAEEEVIKELKKIAEELKAEGYKVELEIKTEKLEDGTTFIEATITIEAETLEEAEEAANKVISLIDEMEEKLKDKILGSLISVEIEEV
B17: LC3A_free_39_2199 (protein)
chain: SEEEEEEAEEEILELAEEEGEEALEAAEELLEELEGNLELVEAVLEQVKRAKEEGADVLELLKRLLELVRKLQEEGKSEEEIIEAIEEEADVIINLIPID
B18: LC3A_28_901 (protein)
chain: GAALESARKALEEVKKAVAEGNTEPLVVEVVAPSKEEDVEEFNELLEELAEEASKMKGVTIIIDVDESVSQENIDKIIDKAEEIEEKYPNVTVIIALPED
B19: LC3A_free_39_2221 (protein)
chain: MEEELEAVLREIAEESGLDYEEVRARMEELQRVGGLSMEQMLEIARALLEAVRAGADAREILEEMLAIAREMTAAGKSPEEIAAAILQTIEDARNLVPLE
B20: LC3A_28_1277 (protein)
chain: SEIDKSLAAALAAAKEAKAKGESAVITIKVPGTATEEDIAKVIATLEEIAEILKDVPNQSIVIDVDGKVPQEYIDKIADKAEEIEKKYPNITVIIALGEE
B21: LC3A_3_1799 (protein)
chain: MEELIEELLKKLKEAGKSEETIEAVRRAAELLKERGFEEALKTFIEEMEKLIDAPDELILEFAEEVLEKLETEDLSEEELIEFIKELARLAKNESEIEEL
B22: LC3A_free_8_2492 (protein)
chain: KSEELAKAASDALDKLEEELVKEAKKLGVSELDILDISLEIGSTIAEIYTKRNDSPEEILKTLKEGLEEVIKLAEEIDEELAKKTKELSEKVIKEVEELI
B23: LC3A_free_8_2468 (protein)
chain: KSQEVVDTVTSGLDELEKEVEKKAKELGLSRLDILDLSLLIGSVIADVISNSDKSVEEIKKTFEEGMEEVIKRAKELSEELAELVKKGKEKALEKLKKLE
B24: LC3A_3_1815 (protein)
chain: MEKEIEEAIKLLKEAGASEETIEAFKKAVEALLEKGYEETAKTLIELAKELKDLPDELLLEFFKEVLELVETSDDNEEEIKEKVKEIASTVRNESEIIEL
B25: LC3A_free_8_2470 (protein)
chain: SSQKAVDAAVEGLDELEKEVTEKAKELGLSRLDILELELEIGSVIAEIISLVDKSIEEIIKAFEEDMEDVIKLAKEISPEVAEIVEKAKEKILKKLKELE
B26: LC3A_28_942 (protein)
chain: MTTQEDLEAVLAQAEEAAKKGEATTFTLTVTPEDTQEDVERVLDTVERIAELLKDIKGTGIVVDVEAGVPQEHIDYLAERLEEIEKKYPNVTVIIALDED
B27: LC3A_3_1540 (protein)
chain: MDAAVAAALARLRAAGASAATLAAFEAAVAALRERGYDAALETLIAETDRLLGLSDALLLAFFEEVLELVETEDIDEEELIARIREIARTTLSEAEIEEL
B28: LC3A_28_976 (protein)
chain: SEIDKAIEKALAEAKAAAAAGEPAVITITVPGSATEEEVEKVIEALEEIAKILAGVKGSAIIIDLTGGVKQEHRDKLADAAEEIEEKYPNVTVILALDEE
B29: LC3A_3_1354 (protein)
chain: SEELIEEQIERLREAGFSEEVLEAARAAFEGLAAQGHEEGIELLTEALLKHKDAPEEKKLRVLNNLLAEVQANPNLTQEEVEELVKLADLDLAIEELDEE

Each binder was assayed against MAP1LC3A, Q9H492 (assay: median log2 fold change of GCK-ALFA target abundance (FLAG IP / Myc IP barcode read proportion) (log2 ratio); each designed protein is fused to an ALFA-tag nanobody in HEK293 cells to bring the named protein to FLAG-tagged glucokinase (GCK); Myc marks an untargeted standard; higher = target protein stabilised (more abundant)). Conditions: target protein: 3xFLAG-MCP-GCK-ALFA reporter; HEK293 landing pad (RPLP).
Outline: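 An ALFA-nanobody-fused binder library was recombined into HEK293 landing-pad cells and induced with 2 μg mL^−1 doxycycline. Cells were transfected with a plasmid expressing a FLAG-tagged target and a Myc-tagged standard. After 48 h, lysates underwent anti-FLAG and anti-Myc immunoprecipitation, and circular RNA barcodes were reverse transcribed, amplified and sequenced. Target abundance is the per-binder median log2 ratio of FLAG to Myc barcode read proportions. Barcodes needed ≥10^−7 proportion in both replicates, binders ≥3 barcodes per replicate, and a 10^−6 pseudocount was added; the two replicates were pooled.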

Row | Binder | median log2 fold change
1 | B1 | 0.00266
2 | B2 | 0.258
3 | B3 | 0.192
4 | B4 | 0.122
5 | B5 | 0.107
6 | B6 | 0.267
7 | B7 | -0.0868
8 | B8 | 0.206
9 | B9 | -0.205
10 | B10 | 0.199
11 | B11 | 0.0692
12 | B12 | -0.315
13 | B13 | 0.478
14 | B14 | 0.169
15 | B15 | 0.284
16 | B16 | -0.0374
17 | B17 | 0.103
18 | B18 | -0.191
19 | B19 | 0.15
20 | B20 | 0.265
21 | B21 | 0.435
22 | B22 | 0.29
23 | B23 | -0.0949
24 | B24 | 0.127
25 | B25 | -0.0391
26 | B26 | 0.118
27 | B27 | 0.222
28 | B28 | 0.227
29 | B29 | 0.184
